These results are taken from US20200323843A1 (IRR, Inc., priority 2010, published 2020).

Each structure is given as a SMILES string.

Test [1] relates to human rhinovirus 16 (HRV-16). The following applies: HRV-16 inoculation; levocetirizine 5 mg po and/or montelukast 10 mg po.
Test [2] concerns chronic rhinosinusitis with nasal polyposis (CRSwNP). The following applies: 12 months.

With `O=C(O)COCCN1CCN([C@H](c2ccccc2)c2ccc(Cl)cc2)CC1` [Levocetirizine, levocetirizine], in test [1], the common cold symptoms result is reported as “mild to moderate reduction”. For the same compound, the QOL entry in test [2] was “mild to moderate improvement”. For the same compound, the “number and size of nasal polyps” value in test [2] (levocetirizine 5 mg po and/or montelukast 10 mg po) is on record as “mild to moderate improvement”.
